Measurements as given in US20230250147A1, “GLP-1R AGONISTIC PEPTIDES WITH REDUCED ACTIVITY” (SANOFI, priority 2020, published 2023).

T1: Mouse GLP-1R (Mus musculus, UniProt O35659)
T1 construct: expressed in transfected cells; host or cells: HEK-293
T1 sequence (O35659 22-463): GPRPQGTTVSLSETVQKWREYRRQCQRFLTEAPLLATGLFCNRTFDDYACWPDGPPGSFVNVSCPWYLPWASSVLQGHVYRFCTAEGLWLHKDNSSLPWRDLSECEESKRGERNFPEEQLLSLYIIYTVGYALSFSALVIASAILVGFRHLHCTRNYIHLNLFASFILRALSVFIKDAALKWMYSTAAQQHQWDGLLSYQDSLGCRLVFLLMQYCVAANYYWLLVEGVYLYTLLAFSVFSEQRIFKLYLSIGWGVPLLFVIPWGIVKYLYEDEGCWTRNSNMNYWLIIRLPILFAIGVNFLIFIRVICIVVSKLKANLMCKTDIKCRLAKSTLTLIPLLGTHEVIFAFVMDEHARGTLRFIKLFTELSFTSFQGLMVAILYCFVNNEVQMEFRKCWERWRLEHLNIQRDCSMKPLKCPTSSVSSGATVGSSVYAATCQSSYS

B1: 61 (protein)
chain: YGEGTFTSDKSKQLEKRLAHLFIEWLIAGGHSSGKPPPKGGGGGGGSGGGGSGGGGSA[… human IgG4 Fc with changes …]GGGSGSAHPIPDSSPLLQFGGQVRQRYLYTDDACQTEAHLEIREDGTVGGAADQSPESLLQLKALKPGVIQILGVKTSRFLCQRPDGALYGSLHFDPEACSFRELLLEDGYNVYQSEAHGLPLHLPGCKSPHRDPAPRGPARFLPLPGLPPAPPEPPGILAPQPPDVGSSDPLSMVGSQGRSPSYAS
modifications: Fusion Protein
B2: 62 (protein)
chain: YGEGTFTSDKSKQLEKRLVRLFIEWLIKGGHSSGKPPPKGGGGGGGSGGGGSGGGGSA[… human IgG4 Fc with changes …]GGGSGSAHPIPDSSPLLQFGGQVRQRYLYTDDACQTEAHLEIREDGTVGGAADQSPESLLQLKALKPGVIQILGVKTSRFLCQRPDGALYGSLHFDPEACSFRELLLEDGYNVYQSEAHGLPLHLPGCKSPHRDPAPRGPARFLPLPGLPPAPPEPPGILAPQPPDVGSSDPLSMVGSQGRSPSYAS
modifications: Fusion Protein
B3: 63 (protein)
chain: YGEGTFTSDKSKQLEKRLAHLFIEWLIKGGHSSGKPPPKGGGGGGGSGGGGSGGGGSA[… human IgG4 Fc with changes …]GGGSGSAHPIPDSSPLLQFGGQVRQRYLYTDDACQTEAHLEIREDGTVGGAADQSPESLLQLKALKPGVIQILGVKTSRFLCQRPDGALYGSLHFDPEACSFRELLLEDGYNVYQSEAHGLPLHLPGCKSPHRDPAPRGPARFLPLPGLPPAPPEPPGILAPQPPDVGSSDPLSMVGSQGRSPSYAS
modifications: Fusion Protein
B4: 64 (protein)
chain: HTEGTFTSDKSKQLEKRLVRLFIEWLIKGGHSSGKPPPKGGGGGGGSGGGGSGGGGSA[… human IgG4 Fc with changes …]GGGSGSAHPIPDSSPLLQFGGQVRQRYLYTDDACQTEAHLEIREDGTVGGAADQSPESLLQLKALKPGVIQILGVKTSRFLCQRPDGALYGSLHFDPEACSFRELLLEDGYNVYQSEAHGLPLHLPGCKSPHRDPAPRGPARFLPLPGLPPAPPEPPGILAPQPPDVGSSDPLSMVGSQGRSPSYAS
modifications: Fusion Protein
B5: 65 (protein)
chain: HGEGTFTSDKSKQLAKRLVRLFIEWLIKGGHSSGKPPPKGGGGGGGSGGGGSGGGGSA[… human IgG4 Fc with changes …]GGGSGSAHPIPDSSPLLQFGGQVRQRYLYTDDACQTEAHLEIREDGTVGGAADQSPESLLQLKALKPGVIQILGVKTSRFLCQRPDGALYGSLHFDPEACSFRELLLEDGYNVYQSEAHGLPLHLPGCKSPHRDPAPRGPARFLPLPGLPPAPPEPPGILAPQPPDVGSSDPLSMVGSQGRSPSYAS
modifications: Fusion Protein
B6: 66 (protein)
chain: GHGEGTFTSDKSKQLEEEAVRLFIEWLKAGGPKKQRLSGGGGGGGSGGGGSGGGGSA[… human IgG4 Fc with changes …]GGGSGSAHPIPDSSPLLQFGGQVRQRYLYTDDACQTEAHLEIREDGTVGGAADQSPESLLQLKALKPGVIQILGVKTSRFLCQRPDGALYGSLHFDPEACSFRELLLEDGYNVYQSEAHGLPLHLPGCKSPHRDPAPRGPARFLPLPGLPPAPPEPPGILAPQPPDVGSSDPLSMVGSQGRSPSYAS
modifications: Fusion Protein
B7: 67 (protein)
chain: GHGEGTFTSDLSIQLEEEAVRLFIEWLLAGGPSSGKPPPKGGGGGGGSGGGGSGGGGSA[… human IgG4 Fc with changes …]GGGSGSAHPIPDSSPLLQFGGQVRQRYLYTDDACQTEAHLEIREDGTVGGAADQSPESLLQLKALKPGVIQILGVKTSRFLCQRPDGALYGSLHFDPEACSFRELLLEDGYNVYQSEAHGLPLHLPGCKSPHRDPAPRGPARFLPLPGLPPAPPEPPGILAPQPPDVGSSDPLSMVGSQGRSPSYAS
modifications: Fusion Protein
B8: 68 (protein)
chain: GHGEGTFTSDLSIQLEEEAVRLFIEWLLAGGPSKGKPPPKGGGGGGGSGGGGSGGGGSA[… human IgG4 Fc with changes …]GGGSGSAHPIPDSSPLLQFGGQVRQRYLYTDDACQTEAHLEIREDGTVGGAADQSPESLLQLKALKPGVIQILGVKTSRFLCQRPDGALYGSLHFDPEACSFRELLLEDGYNVYQSEAHGLPLHLPGCKSPHRDPAPRGPARFLPLPGLPPAPPEPPGILAPQPPDVGSSDPLSMVGSQGRSPSYAS
modifications: Fusion Protein
B9: 69 (protein)
chain: GHGEGTFTSDLSIQLEEEAVRLFIEWLLAGGPSSGKPKPKGGGGGGGSGGGGSGGGGSA[… human IgG4 Fc with changes …]GGGSGSAHPIPDSSPLLQFGGQVRQRYLYTDDACQTEAHLEIREDGTVGGAADQSPESLLQLKALKPGVIQILGVKTSRFLCQRPDGALYGSLHFDPEACSFRELLLEDGYNVYQSEAHGLPLHLPGCKSPHRDPAPRGPARFLPLPGLPPAPPEPPGILAPQPPDVGSSDPLSMVGSQGRSPSYAS
modifications: Fusion Protein
B10: 70 (protein)
chain: GHGEGTFTSDLSIQLEEEAVRLFIEWLLAKGKSKGKPKPKGGGGGGGSGGGGSGGGGSA[… human IgG4 Fc with changes …]GGGSGSAHPIPDSSPLLQFGGQVRQRYLYTDDACQTEAHLEIREDGTVGGAADQSPESLLQLKALKPGVIQILGVKTSRFLCQRPDGALYGSLHFDPEACSFRELLLEDGYNVYQSEAHGLPLHLPGCKSPHRDPAPRGPARFLPLPGLPPAPPEPPGILAPQPPDVGSSDPLSMVGSQGRSPSYAS
modifications: Fusion Protein
B11: 71 (protein)
chain: FGEGTFTSDKSKQLEKRLVRLFIEWLIAGGHSSGKPPPKGGGGGGGSGGGGSGGGGSA[… human IgG4 Fc with changes …]GGGSGSAHPIPDSSPLLQFGGQVRQRYLYTDDACQTEAHLEIREDGTVGGAADQSPESLLQLKALKPGVIQILGVKTSRFLCQRPDGALYGSLHFDPEACSFRELLLEDGYNVYQSEAHGLPLHLPGCKSPHRDPAPRGPARFLPLPGLPPAPPEPPGILAPQPPDVGSSDPLSMVGSQGRSPSYAS
modifications: Fusion Protein

The molecules below were run against T1, Mouse GLP-1R (assay: HTRF cAMP assay in HEK-293 cells, mouse GLP-1R).
Format: cell-based

Going from B1 to B2, the EC50 falls from 43 pM to 13.4 pM (3.2-fold).

Compared with B3, B4 is 8.9-fold lower in EC50: 54.3 pM for the first, 6.08 pM for the second. The second is the more potent here.

First: B5
Second: B6
The EC50 of the first is 1.7-fold lower: 6.63 pM for the first, 11 pM for the second. The first is the more potent here.

B7 and B8 are within 1.5-fold of each other in EC50: 10.2 pM for the first, 9.42 pM for the second.

Going from B9 to B10, the EC50 rises from 17.3 pM to 83.1 pM (4.8-fold).

B11 showed an EC50 of 53.5 pM.

Each molecule was assayed against T2, Human GLP-1R (Homo sapiens, UniProt P43220) (assay: HTRF cAMP assay in HEK-293 cells, human GLP-1R).
T2 construct: expressed in transfected cells; host or cells: HEK-293
Format: cell-based

T2 sequence (P43220 24-463): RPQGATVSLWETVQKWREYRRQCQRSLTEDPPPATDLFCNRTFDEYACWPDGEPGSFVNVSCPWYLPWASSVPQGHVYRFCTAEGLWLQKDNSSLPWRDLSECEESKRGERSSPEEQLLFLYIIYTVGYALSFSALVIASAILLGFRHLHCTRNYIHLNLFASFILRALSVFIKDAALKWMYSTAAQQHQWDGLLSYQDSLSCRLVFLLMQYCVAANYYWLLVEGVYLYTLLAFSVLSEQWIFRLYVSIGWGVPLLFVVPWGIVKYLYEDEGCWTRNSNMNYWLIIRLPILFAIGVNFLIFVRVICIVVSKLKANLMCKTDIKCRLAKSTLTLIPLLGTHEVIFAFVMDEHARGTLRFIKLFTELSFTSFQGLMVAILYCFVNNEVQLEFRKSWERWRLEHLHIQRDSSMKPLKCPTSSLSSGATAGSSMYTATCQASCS

Going from B1 to B2, the EC50 falls from 68.3 pM to 20.3 pM (3.4-fold). The second is the more potent here.

Going from B3 to B4, the EC50 falls from 95.4 pM to 9.09 pM (10-fold).

First: B5
Second: B6
The EC50 of the first is 2-fold lower: 16.5 pM for the first, 33.8 pM for the second.

Going from B7 to B8, the EC50 falls from 36.5 pM to 16.7 pM (2.2-fold).

First: B9
Second: B10
The EC50 of the first is 2.7-fold lower: 15.3 pM for the first, 41.4 pM for the second.

For B11, the EC50 was 27.8 pM.

What follows are molecules tested against T3, Monkey GLP-1R (Macaca fascicularis, UniProt F8V479) (assay: HTRF cAMP assay in HEK-293 cells, monkey GLP-1R).
T3 construct: expressed in transfected cells; host or cells: HEK-293
Format: cell-based

T3 sequence (F8V479 24-463): as the sequence (P43220 24-463) above, with S112N, F120S, S202G, L205V, L237F, W241R, I249V counted along it

First: B1
Second: B2
The EC50 of the first is 3.1-fold higher: 40.2 pM for the first, 12.9 pM for the second.

Going from B3 to B4, the EC50 falls from 52.6 pM to 7.47 pM (7-fold).

Compared with B5, B6 is 3.1-fold higher in EC50: 10.2 pM for the first, 31.4 pM for the second.

Going from B7 to B8, the EC50 falls from 21.6 pM to 10.8 pM (2-fold).

Compared with B9, B10 is 2.6-fold higher in EC50: 14.7 pM for the first, 38.8 pM for the second.

B11 showed an EC50 of 26.6 pM.
